{"source": "PubChem BioAssay AID1468", "about": "(National Center for Advancing Translational Sciences (NCATS), 2008)", "note": "“And” between values parts separate entries of the source, which are not always exact repeats. Equal values may be shown once. About 1,100 (0.39%) of roughly 280,000 compounds were called active. The inconclusive results got no clear call from the source; some entries with a clear call stand among them for comparison. The call rests on the fitted dose curve; in most records, active means well fitted inhibition curve with a large enough effect; inconclusive means small, poorly fitted or top-dose-only effect, or effect the other way; inactive means flat fitted curve, though single readings scatter. Potencies of inconclusive entries are doubtful fits and often do not repeat. On the % scale 0 is the no-effect control and ±100 the full control effect; potency means the concentration at half of the fitted maximal effect; tags describe the fitted curve by direction and shape."}
{"biological_target": "Microtubule-associated protein tau (Homo sapiens) (UniProt P10636)", "sequence (P10636 whole entry, looked up, the tested form may be a part)": "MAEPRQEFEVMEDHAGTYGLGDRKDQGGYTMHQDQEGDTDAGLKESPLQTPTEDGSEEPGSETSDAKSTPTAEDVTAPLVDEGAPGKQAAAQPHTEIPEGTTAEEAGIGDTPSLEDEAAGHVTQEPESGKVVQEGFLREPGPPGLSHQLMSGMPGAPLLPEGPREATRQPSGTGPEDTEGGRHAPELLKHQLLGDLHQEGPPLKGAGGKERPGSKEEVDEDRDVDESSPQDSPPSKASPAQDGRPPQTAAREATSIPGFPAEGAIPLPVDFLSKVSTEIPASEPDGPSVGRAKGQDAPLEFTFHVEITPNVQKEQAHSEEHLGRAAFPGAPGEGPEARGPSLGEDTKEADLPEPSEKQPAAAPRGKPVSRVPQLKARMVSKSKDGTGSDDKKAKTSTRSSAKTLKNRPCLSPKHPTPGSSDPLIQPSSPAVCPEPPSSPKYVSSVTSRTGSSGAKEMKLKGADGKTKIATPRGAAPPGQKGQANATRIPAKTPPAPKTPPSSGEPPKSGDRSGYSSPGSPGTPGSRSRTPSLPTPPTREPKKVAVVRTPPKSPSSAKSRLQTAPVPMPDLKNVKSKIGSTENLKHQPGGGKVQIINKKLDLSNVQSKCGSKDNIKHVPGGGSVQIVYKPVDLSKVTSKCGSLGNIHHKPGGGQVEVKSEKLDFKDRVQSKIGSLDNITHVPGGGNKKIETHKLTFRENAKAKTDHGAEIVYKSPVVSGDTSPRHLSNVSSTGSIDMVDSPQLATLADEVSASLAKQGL", "test": "qHTS for Inhibitors of Tau Fibril Formation, Fluorescence Polarization; further: nearly all actives have a fitted effect of over 55% in size", "settings": "K18 P301L tau heparin fibrillization, Alexa594 FP, 6 h; series mostly up to 57.7 µM; activity, negative = inhibition: at the top concentration", "procedure,_shortened": "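Human K18 P301L fragment (15 uM unlabeled plus 0.24 uM Alexa 594-labeled) in 100 mM sodium acetate pH 7 with compound, aggregation induced by 20 uM heparin for 6 hr at 37 C. ThT (30 uM) added for 1 hr, then Alexa 594 FP read.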"}
{"smiles": "O=C(Nc1ccc2snnc2c1)Nc1cccc2ccccc12", "Potency": "active: 25.1 µM"}
{"smiles": "COc1ccccc1NC(=O)c1cnn(-c2ccccc2)c1-n1cccc1", "Potency": "inconclusive: 15.8 µM [inhibitor, single point]"}
{"smiles": "Cc1cccc(NC(=O)Cn2c(=O)n(Cc3ccccc3)c(=O)c3oc4ccccc4c32)c1C", "Potency": "inconclusive: 12.6 µM [inhibitor, partial curve, poor fit]"}
{"smiles": "O=C(N/N=C/c1ccccc1Cl)c1[nH]c2ccc(Br)cc2c1-c1ccccc1", "Potency": "inconclusive: 22.4 µM [inhibitor, partial curve]"}
{"smiles": "COc1ccc(/C=C/C(=O)Nc2ccc(-n3nncc3-c3ccccc3)cc2)cc1OC", "Potency": "inconclusive: 15.8 µM [inhibitor, partial curve]"}
{"smiles": "COc1ccc(-c2nc3sc(CCNC(=O)C(=O)Nc4ccccc4C#N)c(C)n3n2)cc1", "Potency": "inconclusive: 25.1 µM [inhibitor, single point]"}
{"smiles": "CCOC(=O)c1ccccc1NC(=O)c1c(C)oc2ncnc(N3CCOCC3)c12", "activity, negative = inhibition": "inactive: 0.8%"}
{"smiles": "Cc1nc(-c2ccc(C(=O)Nc3ccc(F)cc3)cc2)cs1", "activity, negative = inhibition": "inactive: -8.27%"}
{"smiles": "COCCn1c(SCC(=O)Nc2ccccc2)nc2c(oc3ccccc32)c1=O", "Potency": "inconclusive: 44.7 µM [inhibitor, single point]"}
{"smiles": "C[C@H](NS(=O)(=O)c1ccccc1)C(=O)OCC(=O)NC(=O)Nc1ccc2c(c1)OCCO2", "activity, negative = inhibition": "inactive: 0.115%"}
{"smiles": "O=C(Nc1ccncc1)c1cc(F)cc(F)c1", "activity, negative = inhibition": "inactive: 6.47%"}
{"smiles": "COC(=O)Oc1ccc(/C=N/NC(=O)CN(c2ccccc2Cl)S(C)(=O)=O)cc1OC", "activity, negative = inhibition": "inactive: -5.96%"}
{"smiles": "COC(=O)CCCC[C@@H]1SC[C@@H]2NC(=O)N[C@@H]21", "activity, negative = inhibition": "inactive: -2.56%"}
{"smiles": "CCCSc1nnc(NC(=O)c2ccco2)s1", "activity, negative = inhibition": "inactive: 2.06%"}
{"smiles": "COc1ccc(CNC(=O)C2(c3cccs3)CCOCC2)cc1", "Potency": "inconclusive: 1 µM [inhibitor, full curve, poor fit]"}
{"smiles": "Nc1ccc(Nc2ccccc2N)cc1", "Potency": "inconclusive: 39.8 µM [inhibitor, single point]"}
{"smiles": "O=C(NNC(=O)c1cc(-c2ccc(Cl)c(Cl)c2)nc2ccccc12)Nc1ccccc1", "Potency": "inconclusive: 20 µM [inhibitor, partial curve]"}
{"smiles": "O=C(COC(=O)COc1ccc(Cl)cc1)Nc1ccc(F)c([N+](=O)[O-])c1", "Potency": "inconclusive: 15.8 µM [inhibitor, single point]"}
{"smiles": "O=[N+]([O-])c1ccc(NC(=S)NCCc2ccccc2)cc1", "Potency": "inconclusive: 35.5 µM [inhibitor, single point]"}
{"smiles": "O=c1[nH]nc(Cc2ccc(Cl)cc2Cl)c2ccccc12", "activity, negative = inhibition": "inactive: -6.59%"}
{"smiles": "CCOC(=O)c1ccc(N=C2SC(C(=O)Nc3ccccc3)CC(=O)N2C)cc1", "note": "(stereo not given)", "Potency": "inconclusive: 25.1 µM [inhibitor, single point]"}
{"smiles": "COCc1cc(=O)n2[nH]c(-c3ccsc3-n3c(C)ccc3C)cc2n1", "Potency": "inconclusive: 31.6 µM [inhibitor, single point]"}
{"smiles": "COc1ccc(-c2cnc(N)nc2-c2ccc(OCc3ccccc3)cc2O)cc1", "Potency": "inconclusive: 17.8 µM [inhibitor, single point]"}
{"smiles": "COCCn1c(SCC(=O)N2CCc3ccccc3C2)nc2cc(Cl)ccc2c1=O", "Potency": "inconclusive: 3.98 µM [inhibitor, partial curve]"}
{"smiles": "CCN(CC)S(=O)(=O)c1ccc(N2CCCCC2)c(NC(=O)c2ccncc2)c1", "activity, negative = inhibition": "inactive: 1.77%"}
{"smiles": "CCCCc1nn2c(=O)cc(COC(=O)CNC(=O)COc3ccc(C)cc3)nc2s1", "activity, negative = inhibition": "inactive: 0.765%"}
{"smiles": "CCN(CC)S(=O)(=O)c1cccc(C(=O)Nc2ccccc2C(=O)Nc2ccc(OC)cc2)c1", "Potency": "inconclusive: 25.1 µM [inhibitor, single point]"}
{"smiles": "CCOC(=O)C1=C(CN2CCN(c3ccc(C)cc3C)CC2)NC(=O)NC1c1ccc(OC)cc1", "note": "(stereo not given)", "activity, negative = inhibition": "inactive: 5.5%"}
{"smiles": "COc1ccc(OC)c(-c2csc(N(Cc3ccco3)C(=O)c3ccco3)n2)c1", "Potency": "inconclusive: 20 µM [inhibitor, partial curve, poor fit]"}
{"smiles": "C=CCNC(=S)N1CCC(C(=O)c2ccc3c(c2)OCCO3)CC1", "Potency": "inconclusive: 0.0631 µM [inhibitor, full curve, poor fit]"}
{"smiles": "O=C(Nc1cccnc1)c1cc2c(ccc3ccccc32)o1", "Potency": "inconclusive: 4.47 µM [inhibitor, single point]"}
{"smiles": "COc1ccc(NC(=O)Nc2cc(C(=O)NCc3ccc(C)cc3)ccc2N2CCCC2)cc1", "Potency": "inconclusive: 3.16 µM [activator, single point]"}
{"smiles": "O=C(/C=C/c1ccc(Cl)cc1)c1cccnc1", "activity, negative = inhibition": "inactive: 16.4%"}
{"smiles": "CN(C)S(=O)(=O)c1ccc(C(=O)Nc2nc(-c3cc4ccccc4o3)cs2)cc1", "Potency": "inconclusive: 10 µM [inhibitor, partial curve, poor fit]"}
{"smiles": "CCCOC(=O)c1cccc(NC(=O)COc2ccc([N+](=O)[O-])cc2)c1", "Potency": "inconclusive: 44.7 µM [inhibitor, single point]"}
{"smiles": "COc1ccc(NS(=O)(=O)c2cccc(NC(=O)CCC(=O)c3ccc(Cl)cc3)c2)cc1", "Potency": "inconclusive: 35.5 µM [inhibitor, single point]"}
{"smiles": "Cc1ccc(-n2nc(C)c3c(C(=O)NCCc4ccc(S(N)(=O)=O)cc4)cc(C)nc32)cc1", "activity, negative = inhibition": "inactive: -3.11%"}
{"smiles": "Oc1sc(C=Nc2ccccc2)c2ccccc12", "activity, negative = inhibition": "inactive: -6.57%"}
{"smiles": "CC(C)c1ccc(NC(=O)c2cc3c(=O)[nH]c4ccccc4c3n2C)cc1", "Potency": "inconclusive: 5.62 µM [inhibitor, partial curve]"}
{"smiles": "CCCCC(CCC(=O)Nc1ccn(-c2ccccc2)n1)C(=O)O", "note": "(stereo not given)", "Potency": "inconclusive: 8.91 µM [inhibitor, partial curve]"}
{"smiles": "O=C(NCc1cccnc1)c1ccc(-c2ccccc2[N+](=O)[O-])o1", "activity, negative = inhibition": "inactive: -2.99%"}
{"smiles": "COc1ccc(OC)c(NC(=O)C(C)n2c(=O)c(-c3ccccc3NC(C)=O)nc3ccccc32)c1", "note": "(stereo not given)", "activity, negative = inhibition": "inactive: -4.77%"}
{"smiles": "CC(C)(C)c1ccc(/C=C/C(=O)Nc2ccc3c(c2)OCCO3)cc1", "Potency": "inconclusive: 39.8 µM [inhibitor, single point]"}
{"smiles": "Cc1ccc(C2OCC3(CO2)COC(c2ccc(C)cc2)OC3)cc1", "note": "(stereo not given)", "activity, negative = inhibition": "inactive: 0.945%"}
{"smiles": "Cc1cccc(NC(=O)CCS(=O)(=O)c2cccc3nsnc23)c1C", "Potency": "inconclusive: 1.78 µM [inhibitor, partial curve] and inconclusive: 7.08 µM [inhibitor, full curve]"}
